Sequences with one replicate were seen in a single cluster, so their values are uncertain.
These sequences were tested on ATP (assay: switch fluorescence ratio, 500 uM ATP over buffer (Cy3 cluster intensity, sum of 5 cycles each) (fold (ratio)); higher = stronger signal-on switching upon ATP binding; sequences stand for … in TCGTCGGCAGCGTCAGATGTGTATAAGAGACAGTTTTTTTTTTTTTTTTTTTTTTTTT…TC). Settings: aptamer strand: ATP DNA aptamer (quencher-CACCTGGGGGAGTATTGCGGAGGAAGG + anchor), 100 nM annealed; ATP concentration: 500 uM; one replicate.
Summary of the method: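 After annealing to 100 nM quencher-labelled ATP aptamer, Cy3-labelled switching-strand clusters on a modified Illumina MiSeq flow-cell were imaged in selection buffer. A second image followed after 15 min with 500 uM ATP at 22 °C, and five such buffer/ATP cycles were done, each separated by NaOH stripping and re-annealing. The fluorescence ratio, averaged per switch-domain sequence, is summed target-cycle over summed buffer-cycle Cy3 intensity per cluster, with clusters outside 100-1000 RFU excluded.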
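Also: ATP exposure 15 min at 22 °C before imaging.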

Row | Sequence | switch fluorescence ratio
1 | TTGGGCAAGT | 1.06
2 | TTGGGCCACC | 0.962
3 | TTGGGGACCA | 1
4 | TTGGGGACTA | 1.03
5 | TTGGGTACAG | 1.02
6 | TTGGGTAGAG | 1.02
7 | TTGGGTATT | 1.02
8 | TTGGGTGTCA | 1.03
9 | TTGGGTTGCA | 0.971
10 | TTGGTAAATT | 1.04
11 | TTGGTACCGG | 1.01
12 | TTGGTATAGG | 1.02
13 | TTGGTCAATT | 1.01
14 | TTGGTCCATC | 1.02
15 | TTGGTCGCGA | 0.992
16 | TTGGTGACAC | 1.05
17 | TTGGTGTCCT | 1.04
18 | TTGGTTAA | 0.993
19 | TTGGTTAGAG | 1.02
20 | TTGGTTAGAT | 0.99
21 | TTGTAAAGA | 0.948
22 | TTGTAAGACG | 0.93
23 | TTGTAAGATG | 1.05
24 | TTGTAATGCG | 0.977
25 | TTGTACTCTG | 1.05

Row | Sequence | switch fluorescence ratio
26 | TTGTAGAACT | 1.02
27 | TTGTAGTGAG | 1
28 | TTGTATAACG | 0.936
29 | TTGTATAGAT | 1
30 | TTGTATAT | 1.03
31 | TTGTATCATT | 0.963
32 | TTGTCAATGC | 2.1
33 | TTGTCATAGC | 0.987
34 | TTGTCATGTG | 1.02
35 | TTGTCGGGGC | 1
36 | TTGTCTAACG | 1.67
37 | TTGTCTTGGT | 1.04
38 | TTGTGACAC | 1.02
39 | TTGTGATAAG | 1.01
40 | TTGTGATGAA | 0.981
41 | TTGTGCCCTG | 1.03
42 | TTGTGCGTCT | 0.946
43 | TTGTGCTATG | 0.951
44 | TTGTGGCTCC | 0.996
45 | TTGTGGGAGA | 0.999
46 | TTGTGGTATC | 1.03
47 | TTGTGTCAGG | 1.04
48 | TTGTGTCGGC | 1.04
49 | TTGTGTCGTC | 0.988
50 | TTGTGTGAAA | 0.967

Row | Sequence | switch fluorescence ratio
51 | TTGTGTGATA | 0.988
52 | TTGTGTGG | 1.02
53 | TTGTGTGTT | 0.991
54 | TTGTTACGTC | 1.01
55 | TTGTTAGGAG | 0.98
56 | TTGTTATTGT | 0.979
57 | TTGTTCCAGT | 0.99
58 | TTGTTCCGGG | 1.06
59 | TTGTTCGCGC | 1.03
60 | TTGTTCGGAA | 1.03
61 | TTGTTCGTCA | 1.02
62 | TTGTTGACT | 1.02
63 | TTGTTT | 1
64 | TTGTTTACCT | 1.08
65 | TTGTTTCAAC | 1.07
66 | TTGTTTCCGC | 3.58
67 | TTGTTTGGGC | 0.98
68 | TTGTTTTAGC | 0.98
69 | TTTAAAAGTT | 0.966
70 | TTTAAACCAG | 0.994
71 | TTTAAACCCA | 0.985
72 | TTTAAACCGC | 1.19
73 | TTTAAATACC | 1.07
74 | TTTAACCTCT | 0.96
75 | TTTAACGACC | 1.1

Row | Sequence | switch fluorescence ratio
76 | TTTAACTTA | 1.03
77 | TTTAACTTCA | 0.983
78 | TTTAAGCCTT | 1.15
79 | TTTAAGCGA | 1.01
80 | TTTAATCAGA | 1.04
81 | TTTAATGGTA | 0.964
82 | TTTACAGCTC | 1
83 | TTTACCCGCG | 0.959
84 | TTTACCTACT | 1.33
85 | TTTACCTCTC | 1.04
86 | TTTACGATTT | 0.997
87 | TTTACTACTT | 1.06
88 | TTTACTGACC | 1.15
89 | TTTAGACAG | 1
90 | TTTAGAGAGG | 1.02
91 | TTTAGCAAAG | 1.07
92 | TTTAGCCTGA | 0.997
93 | TTTAGCGCTA | 0.992
94 | TTTAGCTCAA | 0.992
95 | TTTAGGAAGC | 0.988
96 | TTTAGGCGTC | 0.925
97 | TTTAGTCGA | 0.994
98 | TTTAGTG | 0.954
99 | TTTAGTGACT | 1.04
100 | TTTAGTTG | 0.978
